Measurements published in PubChem BioAssay AID1466 (National Center for Advancing Translational Sciences (NCATS), 2008).
Among all 200,000 compounds or so, about 10 (0.005%) were called active. The inconclusive results got no clear call from the source; some entries with a clear call stand among them for comparison. The call rests on the fitted dose curve; in most records, active means well fitted inhibition curve with a large enough effect; inconclusive means small, poorly fitted or top-dose-only effect, or effect the other way, or another doubt; inactive means no such curve, though single readings can be large or run the other way. Potencies of inconclusive entries are left out as doubtful fits.

biological target: Lysosomal alpha-glucosidase (Homo sapiens) (UniProt P10253); test: qHTS Assay for Inhibitors of Human alpha-Glucosidase as a Potential Chaperone Treatment of Pompe Disease; conditions: purified human GAA, 4-MU-alpha-glucoside fluorescence; activity change, negative = inhibition: at 76.9 µM (top of the series) unless noted;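 on activity change, negative = inhibition: plate controls were uninhibited enzyme wells for no effect and no-enzyme background for full effect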
Procedure, shortened: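 AC50 values come from Hill fits of compound titrations (up to 77 uM) against 4 nM human enzyme. Substrate 4-methylumbelliferyl-alpha-D-pyranoside at 400 uM, pH 5.0 citrate buffer, 20 min room temperature; fluorescence Ex 365/Em 440 after alkaline stop.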
Potency means the concentration at half of the fitted maximal effect; tags describe the fitted curve by direction and shape.

SMILES	Potency	activity change, negative = inhibition
O=C(Nc1cccc(O)c1)c1noc2c1CCc1ccccc1-2	inconclusive [inhibitor, single point]	–
CSCc1cc(N2CCOCC2)nc(SCc2ccc(Cl)c(Cl)c2)n1	inconclusive [inhibitor, single point]	–
CCOC(=O)C(O)(NC(=O)c1cccnc1)C(F)(F)F (stereo not given)	–	inconclusive: -15.6% [inhibitor]
Cc1cc(C)nc(SCC(=O)N(C)C)n1	inconclusive [inhibitor, single point]	–
Clc1ccc(OCc2nnc(SCCN3CCCCC3)n2Cc2ccco2)cc1	–	inconclusive: -16% [inhibitor]
COC(=O)c1[nH]c2ccc(F)cc2c1NS(=O)(=O)c1ccc(OC)cc1OC	–	inactive: -2.31%
COc1cc(C2CC(c3cccnc3)=NN2c2ccc(F)cc2)cc(OC)c1OC (stereo not given)	inconclusive [activator, partial curve]	–
CCC(C)n1c(NC(=O)c2ccccc2)c(C#N)c2nc3ccccc3nc21 (stereo not given)	–	inconclusive: -16.6% [inhibitor]
Cc1ccc(NC(=O)CCCSc2ccccc2)cc1S(=O)(=O)N1CCOCC1	inconclusive [inhibitor, single point]	–
Cc1ccc(NC(=S)NCCc2ccc(F)cc2)c(C)c1	inconclusive [inhibitor, single point]	–
Cc1ccccc1OCCn1cnc2cc([N+](=O)[O-])ccc2c1=O	inconclusive [inhibitor, single point]	–
COC(=O)Cc1c(C)c2ccc(OC(=O)c3ccco3)cc2oc1=O	inconclusive [activator, partial curve]	–
O=C(CCN1C(=O)C2C3C=CC(C3)C2C1=O)NCCc1ccccc1Cl (stereo not given)	inconclusive [inhibitor, partial curve]	–
Cc1cnc(N)c2c(=O)oc3ccccc3c12	inconclusive [activator, partial curve]	–
CC(C)(C)C(=O)NC1CCN(S(=O)(=O)c2ccc(C(F)(F)F)cc2)CC1	inconclusive [inhibitor, single point]	–
CC(Nc1cccnc1)=C(C#N)C#N	–	inconclusive: 7.96% [activator]
Cc1ccc(S(=O)(=O)NC(C(=O)Oc2cc3oc(=O)cc(C)c3cc2Cl)C(C)C)cc1 (stereo not given)	inconclusive [activator, partial curve]	–
COc1cccc(-n2c(C)nn(CCOc3ccccc3)c2=O)c1	inconclusive [inhibitor, single point]	–
Cc1ccc(N(CC(=O)Nc2ccc(S(=O)(=O)N3CCOCC3)cc2)S(C)(=O)=O)cc1C	inconclusive [inhibitor, single point]	–
CCCc1cc(=O)[nH]c(SCC(=O)c2ccc(S(=O)(=O)N3CCCC3)cc2)n1	–	inconclusive: -17.3% [inhibitor]

SMILES	Potency	activity change, negative = inhibition
CC(C)(C)c1ccc(C(=O)NNc2cc(N3CCCCC3)nc(N3CCCCC3)n2)cc1	inconclusive [inhibitor, full curve, poor fit]	–
O=C(O)CCCNS(=O)(=O)c1ccc(NCc2ccccc2)c(C(=O)O)c1	inconclusive [inhibitor, single point]	–
CC(=O)Oc1ccc(N2C(=O)CC(N3CCOCC3)C2=O)cc1 (stereo not given)	inconclusive [inhibitor, single point]	–
COc1ccc(C2C3=C(CCCC3=O)Nc3c(-c4ccccc4)c(C)nn32)cc1 (stereo not given)	inconclusive [activator, partial curve]	–
COc1ccc(C(CCNCc2ccc(F)cc2)c2ccc(F)cc2)cc1 (stereo not given)	–	inconclusive: -17.1% [inhibitor]
O=C(c1ccco1)N1CCC(c2nc(-c3ccc(F)cc3)no2)CC1	–	inconclusive: -15.1% [inhibitor]
Cn1c(=O)[nH]c(=O)c2c1nc(N1CCC(Cc3ccccc3)CC1)n2Cc1ccccc1	–	inconclusive: -18.8% [inhibitor]
COc1ccc(C2CC3(O)CC(C#N)(C(=O)N3)C2(C#N)C#N)cc1 (stereo not given)	inconclusive [inhibitor, single point]	–
COc1cc(/C=C/C(=O)OCC(=O)Nc2ccc(S(=O)(=O)N3CCCC3)cc2)ccc1O	inconclusive [inhibitor, partial curve]	–
O=[N+]([O-])c1nn(-c2ccc(Cl)cc2)n(O)c1=NCc1ccccc1Cl	inconclusive [inhibitor, single point]	–
Cc1ccc(/C=N/NC(=O)CN2CCN(S(=O)(=O)c3ccc(Br)cc3)CC2)s1	inconclusive [inhibitor, partial curve]	–
COc1ccc(OC)c(C2CC(=O)C(C)C(c3cc(OC)ccc3OC)N2)c1 (stereo not given)	inconclusive [inhibitor, single point]	–
Cc1ccsc1/C=N/NC(=O)CN1CCN(S(=O)(=O)c2ccc(Br)cc2)CC1	inconclusive [inhibitor, partial curve]	–
COC(=O)c1ccc(NC(=O)CSc2nnc(-c3ccncc3)n2N)cc1	–	inconclusive: -15.4% [inhibitor]
COc1cc2cc(C(c3nnnn3Cc3ccc(F)cc3)N3CCCCCC3)c(=O)[nH]c2cc1OC (stereo not given)	inconclusive [activator, single point]	–
CC(C)(C)C1CCC2(CC1)C(C#N)=C(SCC(=O)Nc1ccccc1)NC(=O)C2C#N (stereo not given)	inconclusive [inhibitor, partial curve]	–
COc1cc(C(=O)Nc2ccc3c(c2)C(=O)c2ccccc2C3=O)cc(OC)c1OC	inconclusive [inhibitor, single point]	–
O=C(N/N=C/c1ccco1)c1cc(-c2cccc3ccccc23)n[nH]1	inconclusive [inhibitor, full curve]	–
CCCOc1ccc(C2C(C(=O)OC)=CN(CCOC)C=C2C(=O)OC)cc1	inconclusive [activator, partial curve]	–
COC(=O)c1cccc(N(C(=O)CNC(=O)c2ccco2)C(C(=O)NC2CCCC2)c2ccco2)c1 (stereo not given)	inconclusive [inhibitor, single point]	–
